Laboratory results published in the supplement of paper PMC3334620.
The full ranking holds about 33,000 sequences; the median of “E-score (-0.5 to 0.5)” is about -0.043, and the highest 2% start at about 0.37. The list shows a part of the results.

Target: T1, Upc2 (UniProt Q12151)
T1 sequence: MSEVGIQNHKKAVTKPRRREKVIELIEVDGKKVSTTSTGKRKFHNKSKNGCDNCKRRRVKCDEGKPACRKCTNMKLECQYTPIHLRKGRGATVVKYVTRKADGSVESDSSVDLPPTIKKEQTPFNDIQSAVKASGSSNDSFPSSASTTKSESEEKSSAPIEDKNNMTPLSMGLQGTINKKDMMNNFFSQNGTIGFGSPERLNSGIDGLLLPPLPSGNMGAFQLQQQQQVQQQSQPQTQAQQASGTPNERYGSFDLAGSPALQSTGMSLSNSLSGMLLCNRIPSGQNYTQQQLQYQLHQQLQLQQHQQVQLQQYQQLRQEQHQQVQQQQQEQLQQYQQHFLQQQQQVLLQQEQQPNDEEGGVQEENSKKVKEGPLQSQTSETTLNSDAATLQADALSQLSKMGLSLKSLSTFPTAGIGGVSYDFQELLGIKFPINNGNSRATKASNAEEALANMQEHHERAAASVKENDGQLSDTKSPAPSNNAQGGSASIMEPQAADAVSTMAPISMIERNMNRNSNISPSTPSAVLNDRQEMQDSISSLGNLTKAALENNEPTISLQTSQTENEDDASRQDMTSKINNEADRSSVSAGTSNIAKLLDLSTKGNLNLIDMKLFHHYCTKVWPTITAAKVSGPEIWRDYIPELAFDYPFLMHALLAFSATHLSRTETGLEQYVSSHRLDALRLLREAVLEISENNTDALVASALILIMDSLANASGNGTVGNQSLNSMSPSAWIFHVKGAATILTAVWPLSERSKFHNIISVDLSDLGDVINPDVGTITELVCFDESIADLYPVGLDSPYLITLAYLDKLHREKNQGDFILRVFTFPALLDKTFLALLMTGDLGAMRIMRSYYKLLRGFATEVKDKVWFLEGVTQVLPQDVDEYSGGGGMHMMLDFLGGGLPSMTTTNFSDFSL
Assay: PBM E-score (8-mer binding enrichment) (E-score (-0.5 to 0.5)); higher = stronger / more preferred TF binding; most listed sequences are background and not binding sites
Details: protein concentration: 200 nM; construct: GST-full length
Summary of the method: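 Detection of bound protein used fluorescent anti-GST, with scans normalised by masliner. The proteins were GST-tagged yeast transcription factors applied at about 100-200 nM to universal all-10-mer Agilent arrays made double-stranded by primer extension. Each ungapped eight-base word, pooled with its reverse complement, was scored with an E-score from the Universal PBM Analysis Suite.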

Sequence	PBM E-score
CCCCTCAA	-0.149
GTACCCCA	-0.0164
CTACGTCC	-0.092
ACAGGGCT	-0.162
CCGGGGAC	-0.22
GTCTATCA	-0.0813
ACAGGAAA	0.074
ACCTCGAA	0.111
ACATGATA	0.0413
ATTAGCCA	0.0248
GCAAGTGA	-0.185
TAGGACAA	-0.0823
AGGTTACA	-0.196
GCTGTTCA	-0.0377
ACAGAATA	0.139
GAATACAC	-0.047
GTGCAGCA	-0.19
CATGGGCA	-0.125
AATTCACG	0.164
CCCGTGGC	-0.137
GCCACCTA	-0.0598
AATCCAAA	-0.00912

Sequence	PBM E-score
AACATCCC	-0.146
GGGACGCA	-0.259
AAGTAGGG	-0.217
CAACCTAC	-0.123
AACTTTTC	0.0238
AGGGCCGG	-0.317
AACTGGGC	-0.0855
CGCTCTAG	-0.2
CAGGACGA	-0.3
AGGTTCCC	-0.0772
AAACTGCA	-0.00674
CAGTATTA	0.0434
ACGAGAAT	0.396
AATTGACC	0.201
CGCACTAG	-0.0981
CTATCCCC	-0.301
AACTAACA	0.101
AATATCCG	0.228
GTCAGTAA	0.0334
ACCGGAAG	0.0898
AGAGCTAT	-0.132
CATCCCTA	-0.283

Sequence	PBM E-score
CCTACTGC	-0.305
GTCTACAC	0.0437
CCCTATCA	-0.325
ACAATTGT	-0.0371
ACCTATGA	-0.16
AGTAACCA	-0.164
AACCACTC	0.0649
CGAGCGAC	0.237
AAGCATCT	-0.0303
AATCCCGG	-0.113
GGCAGCAA	-0.0774
ATGCGACA	0.226
ACACCCTC	-0.0945
GGCCGGCC	-0.0723
GCGAACGA	0.418
CTTCTGCA	-0.144
CTCCAGGC	-0.304
CTTGCGGC	-0.0451
AACGCACG	0.129
GAATCTGA	-0.0638
TCACACAA	0.00014
ACAATTTA	-0.0419

Sequence	PBM E-score
CTTTCCAA	-0.12
AAGCACAT	-0.0339
AACTCGGA	-0.0443
AGACGTCA	-0.0406
AAGTTTGA	-0.182
CACGAGCC	0.0758
ACGTCCGA	0.0345
AGTCTTAC	0.0844
AGCTTGCA	-0.184
AAGATGTC	-0.212
AATCGTGT	0.169
CGGCAGCC	-0.182
AATCTTAC	0.176
AGTCCATA	-0.225
GATCCGAC	0.105
ACTCGGCT	-0.0276
CATGGTGG	-0.309
CGTATTCC	0.317
GCAGACCC	-0.228
ACCCGACG	0.118
